Measured values reported in PubChem BioAssay AID651820 (National Center for Advancing Translational Sciences (NCATS), 2012).
Several values for one entry are separate records, joined by “and”; a condition that tells them apart may be missing. Equal values may be shown once. About 12,000 (3.5%) of roughly 340,000 compounds were called active. The inconclusive results got no clear call from the source; some entries with a clear call stand among them for comparison. Calls follow the shape of the dose curve; as a rule, active = well fitted inhibition curve with a large enough effect; inconclusive = small, poorly fitted or top-dose-only effect, or another doubt; inactive = no such curve, though single readings can be large or run the other way. A potency beside an inconclusive call is a rough fit, not a confirmed value.

Test: qHTS Assay for Inhibitors of Hepatitis C Virus (HCV)
Conditions: Huh7.5.1 HCVcc-Cre (HCVcc is cell-culture hepatitis C virus) infection, luciferase reporter, 44 h; series mostly up to 41.8 µM
Summary of the method: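 Whole-lifecycle infectious HCVcc-Cre system; cells 1,000/well, compound then virus (~0.5 moi) added 4 h after plating, 44 h culture. Luciferase read 15 sec following 15 min substrate incubation, room temp.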
Potency is read from the fitted curve at half-maximal effect; tags tell the direction and shape of the fitted curve.

**Q.** Which Potency does the source give for `O=C(CNC1CCCCC1)Nc1cc(S(=O)(=O)N2CCOCC2)ccc1Cl` here?
**A.** inactive

**Q.** Which Potency does the source give for `COc1ccccc1NC(=O)c1c(NC(=O)c2ccco2)sc2c1CCC2` here?
**A.** inconclusive: 25.1 µM [inhibitor, partial curve]

**Q.** Which Potency does the source give for `CC[C@@]1(C(=O)OC)N[C@H](CN(C)C(=O)Nc2ccc(Cl)cc2)[C@@H]2C(=O)N(Cc3ccccc3)C(=O)[C@@H]21` here?
**A.** inactive

**Q.** Which Potency does the source give for `CC(C)CN(C(=O)c1cccc(Cl)c1)c1c(N)n(Cc2ccccc2)c(=O)[nH]c1=O` here?
**A.** inactive

**Q.** For `Cc1ccc(NC(=O)c2ccc(S(=O)(=O)C(F)F)cc2)c(C)c1`, which Potency is on record?
**A.** inactive

**Q.** Which Potency does the source give for `O=C(/C(=N/N=C/c1ccc(O)c(O)c1O)c1ccccc1)c1ccccc1` here?
**A.** inconclusive: 10 µM [inhibitor, partial curve, poor fit]

**Q.** For `CN1CN(C)c2cccc3cccc1c23`, which Potency is on record?
**A.** inactive

**Q.** For `Cc1ccc(S(=O)(=O)c2cc3c(=O)n4ccccc4nc3n(C3CCCCC3)c2=N)cc1`, which Potency is on record?
**A.** active: 12.6 µM

**Q.** For `COc1ccc(C(=O)C(CN2CCOCC2)c2ccccc2)cc1` (centres undefined), which Potency is on record?
**A.** inconclusive: 25.1 µM [inhibitor, single point]

**Q.** Which Potency does the source give for `CCc1cccc(CC)c1NC(=O)Cn1c(-c2ccccc2Cl)nc2ccccc21` here?
**A.** inactive

**Q.** Which Potency does the source give for `CC(=O)c1nn(-c2cccc(Cl)c2)cc1C(=O)c1ccco1` here?
**A.** inconclusive: 7.08 µM [inhibitor, partial curve]

**Q.** With `Cc1cc(C)c2nc(-n3nc(C)cc3N)cc(C)c2c1` as the compound, how does the Potency read?
**A.** inconclusive: 31.6 µM [inhibitor, single point]

**Q.** Which Potency does the source give for `COc1ccc(Cl)cc1C(=O)Nc1ccc2c(c1)OCO2` here?
**A.** active: 11.2 µM

**Q.** Which Potency does the source give for `O=C(CN1CCN(S(=O)(=O)c2ccccc2)CC1)Nc1ccnn1C1CCCC1` here?
**A.** inactive

**Q.** For `CCOC(=O)c1ccc(NC(=O)c2ccc3c(c2)C(=O)N(Cc2cccnc2)C3=O)cc1`, which Potency is on record?
**A.** inactive

**Q.** Which Potency does the source give for `COc1ccc(Cl)cc1N1C(=O)CN(Cc2cc(OC)c(OC)c(OC)c2)C1=S` here?
**A.** active: 15.8 µM

**Q.** Which Potency does the source give for `COc1ccc(-n2c(=S)[nH]c3cc(C(=O)N(C)Cc4ccccc4)ccc3c2=O)cc1` here?
**A.** inconclusive: 6.31 µM [inhibitor, full curve]

**Q.** Which Potency does the source give for `Cc1ccccc1C(=O)Nc1cccc(NC(=O)Cn2cnc3c(=O)n(C)c(=O)n(C)c32)c1` here?
**A.** inconclusive: 2.51 µM [inhibitor, full curve]

**Q.** For `CC(C)CCn1c(NCCc2ccccc2)nc2c1c(=O)n(C)c(=O)n2C`, which Potency is on record?
**A.** inconclusive: 14.1 µM [inhibitor, single point]

**Q.** With `O=C(COC(=O)c1ccc(F)cc1)NCC1CCCCC1` as the compound, how does the Potency read?
**A.** inactive

**Q.** With `COc1cc(NS(=O)(=O)c2ccc3ccccc3c2)c2ncccc2c1` as the compound, how does the Potency read?
**A.** inconclusive: 11.2 µM [inhibitor, partial curve]

**Q.** For `CC(C)(C)c1cc(CCC(=O)NNC(=S)NC(=O)c2ccccc2)cc(C(C)(C)C)c1O`, which Potency is on record?
**A.** active: 2.82 µM

**Q.** Which Potency does the source give for `CCOC(=O)C1=C(C)N(C)C(=S)NC1c1ccc(Cl)cc1` (centres undefined) here?
**A.** inconclusive: 0.501 µM [inhibitor, full curve, poor fit]

**Q.** Which Potency does the source give for `COc1ccc(C(=O)Nc2ccc(NC(=O)Cc3ccccc3)cn2)cc1` here?
**A.** inactive

**Q.** With `COc1ccc(C(=O)NNC(=S)NC(=O)c2cccs2)cc1` as the compound, how does the Potency read?
**A.** inconclusive: 10 µM [inhibitor, partial curve]

**Q.** For `COc1ccc(/C=N/NC(=S)Nc2ccccc2)cc1COc1ccc(F)cc1F`, which Potency is on record?
**A.** inconclusive: 20 µM [inhibitor, single point]

**Q.** Which Potency does the source give for `Cc1cc(N2CCCC2=O)cc(C)c1S(=O)(=O)NCCOc1ccccc1` here?
**A.** inconclusive: 10 µM [inhibitor, partial curve, poor fit]

**Q.** Which Potency does the source give for `CCOC(=O)Oc1ccc2oc(C)c(C(=O)OCCOC)c2c1` here?
**A.** inactive

**Q.** With `O=C(COC(=O)CCNS(=O)(=O)c1cccs1)Nc1ccccc1` as the compound, how does the Potency read?
**A.** inactive

**Q.** With `c1cnc2ccc(C(c3nnnn3C3CCCC3)N3CCN(c4nc5ccccc5s4)CC3)cc2c1` (centres undefined) as the compound, how does the Potency read?
**A.** inconclusive: 11.2 µM [inhibitor, partial curve] and inconclusive: 12.6 µM [inhibitor, single point]

**Q.** With `CCCc1nnc(NC(=O)CCC(=O)N2CCN(Cc3ccc(OC)c(F)c3)CC2)s1` as the compound, how does the Potency read?
**A.** inconclusive: 8.91 µM [inhibitor, partial curve]

**Q.** For `O=C(NC1CCCC1)c1ccc([N+](=O)[O-])s1`, which Potency is on record?
**A.** inconclusive: 28.2 µM [inhibitor, single point]

**Q.** Which Potency does the source give for `COc1ccc2c(c1)C1(Nc3ccccc3C(=O)N1c1ccccc1)C(=O)N2` (centres undefined) here?
**A.** inactive

**Q.** With `C#CCSc1nnc(CSc2nc3ccccc3s2)n1-c1ccccc1` as the compound, how does the Potency read?
**A.** inconclusive: 31.6 µM [inhibitor, single point]

**Q.** For `CCc1n[nH]c(=O)n1Cn1c(CC)n[nH]c1=O`, which Potency is on record?
**A.** inactive

**Q.** For `CCCc1ccc(OCC(O)CN2CCCC2)cc1` (centres undefined), which Potency is on record?
**A.** inconclusive: 11.2 µM [inhibitor, partial curve]

**Q.** For `CCc1nn(CCCC(=O)NC(C)c2ccccc2)c(=O)c2cc3occc3n12` (centres undefined), which Potency is on record?
**A.** inconclusive: 3.98 µM [inhibitor, full curve]

**Q.** With `COc1cccc(C2CC(c3cccs3)=NN2C(=O)CSC2=NCCS2)c1OC` (centres undefined) as the compound, how does the Potency read?
**A.** inconclusive: 31.6 µM [inhibitor, single point]

**Q.** With `C/C(CC(=O)N(C(C)C)C(C)C)=N\NC(=O)COc1ccc(Cl)cc1Cl` as the compound, how does the Potency read?
**A.** inactive

**Q.** For `Cc1cc([N+](=O)[O-])ccc1NC(=O)c1ccc(NC(=O)C(C)C)cc1`, which Potency is on record?
**A.** inconclusive: 20 µM [inhibitor, partial curve, poor fit]

**Q.** Which Potency does the source give for `Cc1ccc(O)c(C(=O)c2cc(C(=O)NCCc3ccccc3)c(=O)n(CCc3ccccc3)c2)c1` here?
**A.** inconclusive: 14.1 µM [inhibitor, partial curve]

**Q.** With `COc1cccc2c(=O)n(CC(=O)NC3CCCCC3)ccc12` as the compound, how does the Potency read?
**A.** inconclusive: 1 µM [inhibitor, partial curve]

**Q.** Which Potency does the source give for `COc1ccc(CNC(=O)C(c2ccco2)N(Cc2ccccc2)C(=O)Cc2cccs2)cc1` (centres undefined) here?
**A.** inactive

**Q.** With `CN(C)CCNc1c2c(nc3ccccc13)CCC2` as the compound, how does the Potency read?
**A.** inconclusive: 22.4 µM [inhibitor, single point]

**Q.** For `O=c1[nH]c(=S)n(C2CCCCC2)c(O)c1/C=N/N1CCOCC1`, which Potency is on record?
**A.** inconclusive: 15.8 µM [inhibitor, single point]

**Q.** With `CN(C)CCCNc1ncnc2sc(-c3ccccc3)cc12` as the compound, how does the Potency read?
**A.** inconclusive: 7.94 µM [inhibitor, partial curve]

**Q.** For `COC(=O)C1=Nc2ccccc2/C1=C\c1c(O)n(-c2ccc(Br)cc2)c(=O)[nH]c1=O`, which Potency is on record?
**A.** inconclusive: 25.1 µM [inhibitor, single point]

**Q.** Which Potency does the source give for `Cc1ccc(C(C)C)cc1OCC(=O)NC1CCCCCCC1` here?
**A.** inconclusive: 8.91 µM [inhibitor, partial curve, poor fit]

**Q.** Which Potency does the source give for `COc1cccc(CN(Cc2ccco2)S(=O)(=O)c2ccc(S(=O)(=O)NCc3ccccc3)cc2)c1OC` here?
**A.** active: 11.2 µM

**Q.** For `C/C(=N\Nc1ccc(Cl)c(Cl)c1)c1ccc(-n2ccnc2)cc1`, which Potency is on record?
**A.** inconclusive: 15.8 µM [inhibitor, single point]

**Q.** With `COc1ccccc1CNC(=O)c1cc(C)nc2ccccc12` as the compound, how does the Potency read?
**A.** inconclusive: 1.58 µM [inhibitor, full curve]

**Q.** For `COCCNC(=S)NNC(=O)CSCc1ccc(Cl)cc1Cl`, which Potency is on record?
**A.** inconclusive: 25.1 µM [inhibitor, single point]

**Q.** Which Potency does the source give for `Nc1sc(-c2ccccc2)cc1-c1n[nH]c(=S)n1C1CCCCC1` here?
**A.** inconclusive: 3.16 µM [inhibitor, full curve]

**Q.** For `Fc1ccccc1/C=N/Nc1nc(N2CCCCC2)nc(N2CCCCC2)n1`, which Potency is on record?
**A.** inconclusive: 3.16 µM [inhibitor, partial curve]

**Q.** Which Potency does the source give for `Cn1c(=O)c2c(nc(Oc3ccccc3Cl)n2C)n(C)c1=O` here?
**A.** inactive

**Q.** Which Potency does the source give for `O=C(NCc1ccc(Cl)cc1)C1CCCN(C(=O)c2ccc(Cl)cc2)C1` (centres undefined) here?
**A.** inconclusive: 10 µM [inhibitor, single point]

**Q.** With `O=C1/C(=C/c2c[nH]c3ccccc23)CCC/C1=C\c1c[nH]c2ccccc12` as the compound, how does the Potency read?
**A.** inconclusive: 3.16 µM [inhibitor, partial curve]

**Q.** For `COCCCNC(=S)N/N=C/c1cccc(OC)c1O`, which Potency is on record?
**A.** inconclusive: 3.16 µM [inhibitor, partial curve]

**Q.** Which Potency does the source give for `O=C(Nc1ccc(Br)cc1)c1cccc(N2C(=O)C3C4CCC(C4)C3C2=O)c1` (centres undefined) here?
**A.** active: 25.1 µM

**Q.** Which Potency does the source give for `Cc1cc(C)n(-c2nc(N(C)C)nc(N(C)C)n2)n1` here?
**A.** inactive

**Q.** With `COc1ccc(/C=C/C2=CC(C)(C)NC(=S)N2)cc1OC` as the compound, how does the Potency read?
**A.** inconclusive: 7.94 µM [inhibitor, partial curve, poor fit]

**Q.** Which Potency does the source give for `Cn1c(CCN2CCOCC2)nc2cc(NC(=O)COc3ccccc3)ccc21` here?
**A.** inactive

**Q.** With `CNS(=O)(=O)c1cccc(C(=O)OCC(=O)/C=C2/N(C)c3ccccc3C2(C)C)c1` as the compound, how does the Potency read?
**A.** inconclusive: 12.6 µM [inhibitor, partial curve]

**Q.** With `O=C(N/N=C/c1cccc(C(F)(F)F)c1)c1ccccc1O` as the compound, how does the Potency read?
**A.** inactive

**Q.** Which Potency does the source give for `CCN(C[C@H]1N[C@@](CC)(C(=O)OC)[C@H]2C(=O)N(Cc3ccccc3)C(=O)[C@@H]12)S(=O)(=O)c1ccc(C(F)(F)F)cc1` here?
**A.** inconclusive: 0.562 µM [inhibitor, partial curve, poor fit]

**Q.** Which Potency does the source give for `CCCn1nc(C(=O)N2CCN(S(=O)(=O)c3ccc(C)c(C)c3)CC2)c2ccccc2c1=O` here?
**A.** active: 14.1 µM

**Q.** With `CN(c1ccccc1)S(=O)(=O)c1ccc(NC(=O)CC(=O)c2ccccc2)cc1` as the compound, how does the Potency read?
**A.** inconclusive: 4.47 µM [inhibitor, partial curve]

**Q.** For `CN(CC(=O)Nc1ccc(Cl)c(C(F)(F)F)c1)C(=O)c1cccnc1Sc1ccccc1`, which Potency is on record?
**A.** inconclusive: 31.6 µM [inhibitor, single point]

**Q.** For `O=C1c2ccccc2-c2cccc3cccc1c23`, which Potency is on record?
**A.** inconclusive: 2.51 µM [inhibitor, full curve, poor fit]
